The RNAGym collection of RNA variant scans (doi:10.7554/elife.90254)
Read counts are not given, so values of variants with three or more changes are uncertain.

B1: LINE1-mini (parent)
chain: GGCAGAGCUCAACACAGCGUGGCAAAGUGGCUGUGGCUAGACUGCC

Variants of: B1
Test: self-cleavage, relative activity (ratio to wild type); higher = more cleavage; in vitro, sequencing; the parent is a self-cleaving ribozyme

Row | Variant | self-cleavage
1 | GCCAGAGCUCAACACAGCGUGGAAAAGUGGCUGUGCCUAGCCUGCC [G2C C23A G36C A41C] | 0.26
2 | GCCAGAGCUCAAGACAGCGUGUCAAAGUGGCUGUGGCUAGUCUGCC [G2C C13G G22U A41U] | 0
3 | GCCAGAGCUCAACACAGCGUGGCAAAGUGGAUGUGACUAGACUGCC [G2C C31A G36A] | 0.03
4 | GCCAGAGCUCAACACAGCGUGGCAAAGUGGUUGUGGCUAGAAUGCC [G2C C31U C42A] | 0.04
5 | GCCAGAGCUAAACACAGCGCGGCAAAGUGGCUGCGUCUAGACUGCC [G2C C10A U20C U34C G36U] | 0.02
6 | GCCAAAGCUCAGCACAGCGUGAAAAAGUGGCUGUGGCUAGACUGCC [G2C G5A A12G G22A C23A] | 0.02
7 | GCCAGAGCUCAAGACAGCGUGGCAAAUUGGCUGUGGCUAGACUGCU [G2C C13G G27U C46U] | 0.02
8 | GCCAGAGCUCAACACAGCGUGGUAAAGUGUCUGUGGCUAGACUGCA [G2C C23U G30U C46A] | 0.05
9 | GCCAGAGCUCAAAACAGGGUGGCAAAGUGGCUGUGGCUAGACUGCC [G2C C13A C18G] | 0.05
10 | GCCAGAGCUCAAUACUGCGUGGCAAAGUGGCUGUGGCUAGACUGUC [G2C C13U A16U C45U] | 0.02
11 | GCCAGAGCUUAUCACAGCUUGGCAAAGUGGCUGUGGCUAGACUGCC [G2C C10U A12U G19U] | 0.05
12 | GCCAGAGCUCAAUACAGCGUGGCAAAGUGGCUGUGACUAGGACUGC [G2C C13U G36A A41G C42A U43C G44U C45G] | 0.02
13 | GCCAGAGCUAAACACAGCGUGGCAAAGUGCCUCUGGCUAGACUGCC [G2C C10A G30C G33C] | 0.02
14 | GCCAGAGCUCAACAGAGCGUGGCAAAGCGGCUGUGGCUAGACUGCC [G2C C15G U28C] | 0
15 | GCCAGAGCUCAAAACAGCGUGGCAAAGUGGAUGUGGCUAGACUGCC [G2C C13A C31A] | 0.1
16 | GCCAGAGCUCAACACAGCGUGGGCAAGUGGCUGUGGCUAGACUGCC [G2C C23G A24C] | 0.01
17 | GCCAGAGCUCAAUACAUCGUGGCAAAGUGGCUGAGGCUAGACUGCC [G2C C13U G17U U34A] | 0.11
18 | GCCAGAGCUCAAAACAGCGUGGCAAAGUGUCUGUGGCUAGACUGCC [G2C C13A G30U] | 0.03
19 | GCCAGAGCUCAACAAAGCCUUGCAAAGUGGCUGUGGCUAGAGUGCU [G2C C15A G19C G21U C42G C46U] | 0.02

Row | Variant | self-cleavage
20 | GCCAGAGCUCAACACAGCGUGGCAAAGUGGACGUGGUUAGACUGCC [G2C C31A U32C C37U] | 0.04
21 | GCCAGAGCUCAACACAGUCUGGCCAAGUGGCUGUGGCUAGACUUCC [G2C C18U G19C A24C G44U] | 0.03
22 | GCCAGAGCUCAACAAAGUGUGGCAAAGUGGCUGUGGCUAGACUGCC [G2C C15A C18U] | 0.12
23 | GCCAGAGCUCAACAUAGCGCGGCAAAGUGGCUGUGGCUAGACUGCC [G2C C15U U20C] | 0
24 | GCCAGAGCUCAACACAGGGUGGCAAAGUGGCUGUGGCUGGACUGCC [G2C C18G A39G] | 0
25 | GCCAGAGCUUAACACAGCGUGGCAAAUUAGCUGUGGCUAGACAGCC [G2C C10U G27U G29A U43A] | 0.01
26 | GCCAGAGCUCAACACAGUGUGGCAAAGUGGCCGUGGCUAGACUGCC [G2C C18U U32C] | 0.01
27 | GCCAGAGCUCAACAUAGCGUAGCAAAGUGUCUGUGGCUAGACUGCC [G2C C15U G21A G30U] | 0.17
28 | GCCAGAGCUAAACACAGACUGGCAAAGUGGCUGUGUCUAGACUGCC [G2C C10A C18A G19C G36U] | 0.01
29 | GCCAGAGCUCAACACAGCGUGGCAAAGUGGUUGUGGCUAGGCUGCC [G2C C31U A41G] | 0.07
30 | GCCAGAGCUCAACAAAGCGUGGCCAAGUUGCUGUGGCUAGACUGCC [G2C C15A A24C G29U] | 0.03
31 | GCCAGAGCUCAACACAGAGUGCCAAAGUGGCUGGGGCUAGACUGGC [G2C C18A G22C U34G C45G] | 0
32 | GCCAGAGCUCAAAACAGCGUGUCAAAGUGGCUGUGGCUAGACUGCC [G2C C13A G22U] | 0.01
33 | GCCAGAGCUAAACACAGCGUGGCAAAUUGGCUGUGGCUAGAGUGCC [G2C C10A G27U C42G] | 0.05
34 | GCCAGAGUUCAACACAGCGUGGAGAAGUGGCUGUAGCUGGACUGCC [G2C C8U C23A A24G G35A A39G] | 0.02
35 | GCCAGAGCUCAAUACAAUGUGGCAAAGUGGCUGUGGCUAUACUGCC [G2C C13U G17A C18U G40U] | 0.05
36 | GCCAGAGCUCAAUACAGCGUGGCAAGGUCGCUGUGGCUAGACUACC [G2C C13U A26G G29C G44A] | 0.13
37 | GCCAGAGCUCAACACAGAGUGGCAAAGUGGCAGUGUCUAGGCUGCC [G2C C18A U32A G36U A41G] | 0.01
38 | GCCAGAGCUAAACACAGCAUGGCAAGGUGGCUGUGGCUAGACUGCC [G2C C10A G19A A26G] | 0.02

Row | Variant | self-cleavage
39 | GCCAGAGCUCAAUACAAAGUGGCAAAGUGGCUGUCGCUAGACUGCC [G2C C13U G17A C18A G35C] | 0.33
40 | GCCAGAGCUCAAGACAGCGUGGCAGAGUGGCUGUGGUUAGACUGCU [G2C C13G A25G C37U C46U] | 0.02
41 | GCCAGAGCUGAACACAGCGUGGCAAAGUGACUGUGGCUAGACUGCU [G2C C10G G30A C46U] | 0.02
42 | GCCAGAGCUCAACACAGCGUGGCAAAGUGGCUGUGGUUAGACUGCU [G2C C37U C46U] | 0.23
43 | GCCAGAGCUGAACACAGCGUGGAAAAGUGGCUGUGGCUAGACUGCC [G2C C10G C23A] | 0.01
44 | GCCAGAGCUCAACAGUGAGUGGCAAAGUGGCUGUGGCUAGACUGCC [G2C C15G A16U C18A] | 0.03
45 | GCCAGAGCUCAACAAAGCGUGGCAAAGUGGCUGGGGCUAGACUGCC [G2C C15A U34G] | 0.01
46 | GCCAGAGUUCAACACAGAGUGGCAAUGUGGCUGUGGCUAGACUGCC [G2C C8U C18A A26U] | 0.05
47 | GCCAGAGCUAAACACAGCGUGGCAACGUGGCGAUGGCUAGACUGGC [G2C C10A A26C U32G G33A C45G] | 0.01
48 | GCCAGAGCUAAACAAAGCGUGGCAAAGUGGCUAAGGCUAGACUGCC [G2C C10A C15A G33A U34A] | 0.03
49 | GCCAGAGCUAAACACAGCGUGGCAAAGUGGCUGAGGCUAGACUGCC [G2C C10A U34A] | 0.02
50 | GCCAGAGCUAAACACAGCGUGGCAAAGUGGCUGGGGCUAGACUGCC [G2C C10A U34G] | 0.04
51 | GCCAGAGCUCAACACAGCGUGGCAAAGUGGAUGUGUCUAGAGUGCC [G2C C31A G36U C42G] | 0.11
52 | GCCAGAGCUCAACAUAGCGUGGUAAAGUGGCGGUGGCUAGACUGCC [G2C C15U C23U U32G] | 0.11
53 | GCCAGAGCUAAACACACCGAGGUAAAGUGUCUGUGGCUAGACUGCC [G2C C10A G17C U20A C23U G30U] | 0
54 | GCCAGAGCUCAACACAGUGUGGCAAAGUGACUGUGGCUAGACUUCG [G2C C18U G30A G44U C46G] | 0.24
55 | GCCAGAGCUCAAGACAGCGUGCCAAAGUGUCUGUGGCGAGACUGCC [G2C C13G G22C G30U U38G] | 0.03
56 | GCCAGAGUUCAACACAGCGUGGCAAAGUGGCUGUGGUUAGACUGCC [G2C C8U C37U] | 0.08
